# Data published in paper PMC12820563.
# Some of the results follow. The list includes weakly bound sequences.
# Molecular target: T1, MBP-FoxP3dN (UniProt Q99JB6)
# T1 sequence: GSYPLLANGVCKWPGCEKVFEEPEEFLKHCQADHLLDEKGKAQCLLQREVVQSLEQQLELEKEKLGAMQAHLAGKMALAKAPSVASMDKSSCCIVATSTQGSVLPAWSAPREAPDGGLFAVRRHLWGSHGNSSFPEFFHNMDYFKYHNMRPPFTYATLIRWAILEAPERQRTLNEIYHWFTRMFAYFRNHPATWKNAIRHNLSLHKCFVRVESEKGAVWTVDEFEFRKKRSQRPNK
# Assay: PD-seq (MBP pull-down with sequencing)
# Details: 20 mM Tris-HCl pH 7.5, 100 mM NaCl, 1.5 mM MgCl2, 0.4 uM protein, 0.1 uM dsDNA library, 30 min, room temperature, amylose pull-down; high values mean tight binding; double strand, one strand shown
row,Sequence,binding signal (RPM ratio (pull-down/input))
1,GATGATTGTTCTCCCAGCTGATGAATTTTGATCCTCGAGTAAACAAATTTTCCTAATCTTTCTGTTCAAGCGCCATCTAC,0.498
2,GATGATTGTTCTCCCAGCTGATGAATTCGTCATTTCGAGTAAACAAATTTTCCTAATCTTTCTGTTCAAGCGCCATCTAC,1.89
3,GATGATTGTTCTCCCAGCTGATGAATTTCTCGAGTCGAGTAAACAAATTTTCCTAATCTTTCTGTTCAAGCGCCATCTAC,0.191
4,GATGATTGTTCTCCCAGCTGATGAATTTCGCGCGTCGAGTAAACAAATTTTCCTAATCTTTCTGTTCAAGCGCCATCTAC,1.92
5,GATGATTGTTCTCCCAGCTGATGAATTTTACTAGTCGAGTAAACAAATTTTCCTAATCTTTCTGTTCAAGCGCCATCTAC,0.31
6,GATGATTGTTCTCCCAGCTGATGAATTTCTCTGGTCGAGTAAACAAATTTTCCTAATCTTTCTGTTCAAGCGCCATCTAC,0.195
7,GATGATTGTTCTCCCAGCTGATGAATTTAGTCAGTCGAGTAAACAAATTTTCCTAATCTTTCTGTTCAAGCGCCATCTAC,0.361
8,GATGATTGTTCTCCCAGCTGATGAATTTTCTCGATCGAGTAAACAAATTTTCCTAATCTTTCTGTTCAAGCGCCATCTAC,0.22
9,GATGATTGTTCTCCCAGCTGATGAATTGCCAGGGTCGAGTAAACAAATTTTCCTAATCTTTCTGTTCAAGCGCCATCTAC,0.649
10,GATGATTGTTCTCCCAGCTGATGAATTTAGGGGTTCGAGTAAACAAATTTTCCTAATCTTTCTGTTCAAGCGCCATCTAC,0.677
11,GATGATTGTTCTCCCAGCTGATGAATTTTGAAGGTCGAGTAAACAAATTTTCCTAATCTTTCTGTTCAAGCGCCATCTAC,0.308
12,GATGATTGTTCTCCCAGCTGATGAATTCCGCATATCGAGTAAACAAATTTTCCTAATCTTTCTGTTCAAGCGCCATCTAC,3.11
13,GATGATTGTTCTCCCAGCTGATGAATTCCCGACGTCGAGTAAACAAATTTTCCTAATCTTTCTGTTCAAGCGCCATCTAC,0.241
14,GATGATTGTTCTCCCAGCTGATGAATTATGGAGGTCGAGTAAACAAATTTTCCTAATCTTTCTGTTCAAGCGCCATCTAC,0.302
15,GATGATTGTTCTCCCAGCTGATGAATTGGTCGGTTCGAGTAAACAAATTTTCCTAATCTTTCTGTTCAAGCGCCATCTAC,0.409
16,GATGATTGTTCTCCCAGCTGATGAATTTGTGGACTCGAGTAAACAAATTTTCCTAATCTTTCTGTTCAAGCGCCATCTAC,4.04
17,GATGATTGTTCTCCCAGCTGATGAATTTAGAGATTCGAGTAAACAAATTTTCCTAATCTTTCTGTTCAAGCGCCATCTAC,0.458
18,GATGATTGTTCTCCCAGCTGATGAATTGTACCTTTCGAGTAAACAAATTTTCCTAATCTTTCTGTTCAAGCGCCATCTAC,0.527
19,GATGATTGTTCTCCCAGCTGATGAATTACTGAACTCGAGTAAACAAATTTTCCTAATCTTTCTGTTCAAGCGCCATCTAC,0.267
20,GATGATTGTTCTCCCAGCTGATGAATTGGATACGTCGAGTAAACAAATTTTCCTAATCTTTCTGTTCAAGCGCCATCTAC,0.562
21,GATGATTGTTCTCCCAGCTGATGAATTATGAGGCTCGAGTAAACAAATTTTCCTAATCTTTCTGTTCAAGCGCCATCTAC,0.6

row,Sequence,binding signal (RPM ratio (pull-down/input))
1,GATGATTGTTCTCCCAGCTGATGAATTGCGGTCATCGAGTAAACAAATTTTCCTAATCTTTCTGTTCAAGCGCCATCTAC,1.01
2,GATGATTGTTCTCCCAGCTGATGAATTGAATATATCGAGTAAACAAATTTTCCTAATCTTTCTGTTCAAGCGCCATCTAC,0.6
3,GATGATTGTTCTCCCAGCTGATGAATTTAGCTCCTCGAGTAAACAAATTTTCCTAATCTTTCTGTTCAAGCGCCATCTAC,0.927
4,GATGATTGTTCTCCCAGCTGATGAATTAGTTCCCTCGAGTAAACAAATTTTCCTAATCTTTCTGTTCAAGCGCCATCTAC,0.617
5,GATGATTGTTCTCCCAGCTGATGAATTCAGCGAATCGAGTAAACAAATTTTCCTAATCTTTCTGTTCAAGCGCCATCTAC,0.239
6,GATGATTGTTCTCCCAGCTGATGAATTAGAGGAGTCGAGTAAACAAATTTTCCTAATCTTTCTGTTCAAGCGCCATCTAC,0.236
7,GATGATTGTTCTCCCAGCTGATGAATTCGCGCTCTCGAGTAAACAAATTTTCCTAATCTTTCTGTTCAAGCGCCATCTAC,0.483
8,GATGATTGTTCTCCCAGCTGATGAATTCCTCATCTCGAGTAAACAAATTTTCCTAATCTTTCTGTTCAAGCGCCATCTAC,0.247
9,GATGATTGTTCTCCCAGCTGATGAATTTGGCTCGTCGAGTAAACAAATTTTCCTAATCTTTCTGTTCAAGCGCCATCTAC,0.665
10,GATGATTGTTCTCCCAGCTGATGAATTAAACGACTCGAGTAAACAAATTTTCCTAATCTTTCTGTTCAAGCGCCATCTAC,0.58
11,GATGATTGTTCTCCCAGCTGATGAATTGGCTTCCTCGAGTAAACAAATTTTCCTAATCTTTCTGTTCAAGCGCCATCTAC,0.562
12,GATGATTGTTCTCCCAGCTGATGAATTGGACGAGTCGAGTAAACAAATTTTCCTAATCTTTCTGTTCAAGCGCCATCTAC,0.201
13,GATGATTGTTCTCCCAGCTGATGAATTGCAAAATTCGAGTAAACAAATTTTCCTAATCTTTCTGTTCAAGCGCCATCTAC,0.636
14,GATGATTGTTCTCCCAGCTGATGAATTATGAGCTTCGAGTAAACAAATTTTCCTAATCTTTCTGTTCAAGCGCCATCTAC,0.477
15,GATGATTGTTCTCCCAGCTGATGAATTCCACACATCGAGTAAACAAATTTTCCTAATCTTTCTGTTCAAGCGCCATCTAC,0.467
16,GATGATTGTTCTCCCAGCTGATGAATTAAAACTCTCGAGTAAACAAATTTTCCTAATCTTTCTGTTCAAGCGCCATCTAC,0.292
17,GATGATTGTTCTCCCAGCTGATGAATTCCATTTATCGAGTAAACAAATTTTCCTAATCTTTCTGTTCAAGCGCCATCTAC,1.46
18,GATGATTGTTCTCCCAGCTGATGAATTTGCCGCCTCGAGTAAACAAATTTTCCTAATCTTTCTGTTCAAGCGCCATCTAC,0.88
19,GATGATTGTTCTCCCAGCTGATGAATTCAGAAAATCGAGTAAACAAATTTTCCTAATCTTTCTGTTCAAGCGCCATCTAC,0.141
20,GATGATTGTTCTCCCAGCTGATGAATTTCCTTCGTCGAGTAAACAAATTTTCCTAATCTTTCTGTTCAAGCGCCATCTAC,0.292
21,GATGATTGTTCTCCCAGCTGATGAATTCCCTTGCTCGAGTAAACAAATTTTCCTAATCTTTCTGTTCAAGCGCCATCTAC,0.309

row,Sequence,binding signal (RPM ratio (pull-down/input))
1,GATGATTGTTCTCCCAGCTGATGAATTCGCGGACTCGAGTAAACAAATTTTCCTAATCTTTCTGTTCAAGCGCCATCTAC,0.309
2,GATGATTGTTCTCCCAGCTGATGAATTATCTAACTCGAGTAAACAAATTTTCCTAATCTTTCTGTTCAAGCGCCATCTAC,0.288
3,GATGATTGTTCTCCCAGCTGATGAATTGAATGCTTCGAGTAAACAAATTTTCCTAATCTTTCTGTTCAAGCGCCATCTAC,1.23
4,GATGATTGTTCTCCCAGCTGATGAATTAGTAAATTCGAGTAAACAAATTTTCCTAATCTTTCTGTTCAAGCGCCATCTAC,0.68
5,GATGATTGTTCTCCCAGCTGATGAATTTAGGCCTTCGAGTAAACAAATTTTCCTAATCTTTCTGTTCAAGCGCCATCTAC,1.79
6,GATGATTGTTCTCCCAGCTGATGAATTAATGCTGTCGAGTAAACAAATTTTCCTAATCTTTCTGTTCAAGCGCCATCTAC,1.3
7,GATGATTGTTCTCCCAGCTGATGAATTTCATATCTCGAGTAAACAAATTTTCCTAATCTTTCTGTTCAAGCGCCATCTAC,0.703
8,GATGATTGTTCTCCCAGCTGATGAATTTTTAATATCGAGTAAACAAATTTTCCTAATCTTTCTGTTCAAGCGCCATCTAC,0.411
9,GATGATTGTTCTCCCAGCTGATGAATTGATATTGTCGAGTAAACAAATTTTCCTAATCTTTCTGTTCAAGCGCCATCTAC,1.34
10,GATGATTGTTCTCCCAGCTGATGAATTCCCGCCTTCGAGTAAACAAATTTTCCTAATCTTTCTGTTCAAGCGCCATCTAC,2.93
11,GATGATTGTTCTCCCAGCTGATGAATTTGATCTCTCGAGTAAACAAATTTTCCTAATCTTTCTGTTCAAGCGCCATCTAC,0.421
12,GATGATTGTTCTCCCAGCTGATGAATTTAATATGTCGAGTAAACAAATTTTCCTAATCTTTCTGTTCAAGCGCCATCTAC,3.01
13,GATGATTGTTCTCCCAGCTGATGAATTCAGTGTCTCGAGTAAACAAATTTTCCTAATCTTTCTGTTCAAGCGCCATCTAC,1.84
14,GATGATTGTTCTCCCAGCTGATGAATTCAGTAATTCGAGTAAACAAATTTTCCTAATCTTTCTGTTCAAGCGCCATCTAC,0.97
15,GATGATTGTTCTCCCAGCTGATGAATTATTGGTGTCGAGTAAACAAATTTTCCTAATCTTTCTGTTCAAGCGCCATCTAC,1.45
16,GATGATTGTTCTCCCAGCTGATGAATTACACGGCTCGAGTAAACAAATTTTCCTAATCTTTCTGTTCAAGCGCCATCTAC,0.332
17,GATGATTGTTCTCCCAGCTGATGAATTACACACTTCGAGTAAACAAATTTTCCTAATCTTTCTGTTCAAGCGCCATCTAC,0.651
18,GATGATTGTTCTCCCAGCTGATGAATTACGGCTATCGAGTAAACAAATTTTCCTAATCTTTCTGTTCAAGCGCCATCTAC,0.705
19,GATGATTGTTCTCCCAGCTGATGAATTTGCCGTTTCGAGTAAACAAATTTTCCTAATCTTTCTGTTCAAGCGCCATCTAC,1.25
20,GATGATTGTTCTCCCAGCTGATGAATTCAAGGCCTCGAGTAAACAAATTTTCCTAATCTTTCTGTTCAAGCGCCATCTAC,0.358
21,GATGATTGTTCTCCCAGCTGATGAATTTCTGTAATCGAGTAAACAAATTTTCCTAATCTTTCTGTTCAAGCGCCATCTAC,0.663
